pIC50: −log10 of the molar value.

The assay deals with hepatitis C virus RNA dependant polymerase (NS5B) (Hepatitis C virus genotype 1b, UniProt P26663). As to the kind of experiment: Inhibition of NS5B RNA dependent RNA polymerase activity (SPA, oligo-U/polyA). The protocol: The compounds of the invention were tested for inhibitory activity against the hepatitis C virus RNA dependant polymerase (NS5B), according to the following assay:
The substrates are: • a 12 nucleotide RNA oligo-uridylate (or oligo-uridine-monophosphate) (oligo-U) primer modified with biotin at the free 5′C position; • a complementary poly-adenylate (or adenosine monophosphate) (polyA) template of heterogeneous length (1000-10000 nucleotides); and UTP-[5,6 ^3H].
Polymerase activity is measured as the incorporation of UMP-[5,6 ^3H] into the chain elongated from the oligo-U primer. The ^3H-labelled reaction product is captured by SPA-beads coated with streptavidin and quantified on the TopCount.
The enzyme can be stored at −20° C. in storage buffer (see below).
The biotinylated oligo-U12 primer, the Poly(A) template, and the UTP-[5,6 ^3H] were dissolved in water. The solutions can be stored at −80° C.
Just prior to assay, test compounds of the invention were dissolved in assay buffer containing 15% DMSO.
Just prior to assay, the substrates were mixed in assay buffer to the following concentrations:
Just prior to assay, the RNA polymerase (NS5B) cocktail was prepared in assay buffer to the following specifications:
The assay reaction was performed in a Microfluor™ white “U” bottom plate (Dynatech™ #7105), by successively adding: • 20 μL of test compound cocktail; • 20 μL of substrate cocktail; and • 20 μL of enzyme cocktail (final [NS5B] in assay=10 nM; final [n-dodecyl maltoside] in assay=0.33%; final DMSO in assay=5%).
The reaction was incubated at room temperature for 1.5 hours. STOP solution (20 μL; 0.5 M EDTA, 150 ng/μl tRNA) was added, followed by 30 μl streptavidin coated PVT beads (8 mg/ml in 20 mM Tris-HCl, pH 7.5, 25 mM KCl, 0.025% NaN3). The plate was then shaken for 30 minutes. A solution of CsCl was added (70 μL, 5 M), to bring the CsCl concentration to 1.95 M. The mixture was then allowed to stand for 1 hour. The beads were then counted on a Hewlett Packard TopCount™ instrument using the following protocol: • Data mode: counts per minute • Scintillator: liq/plast • Energy range: low • Efficiency mode: normal • Region: 0-50 • Count delay: 5 minutes • Count time: 1 minute • Expected results: 6000 cpm/well • 200 cpm/well no enzyme control.
Based on the results at ten different concentrations of test compound, standard concentration-% inhibition curves were plotted and analysed to determine IC50's for the compounds of the invention. For some compounds, the IC50 was estimated from two points.
Regarding `C[C@@H](NC(=O)c1ccc2c(c1)nc(-c1ccccn1)n2C1CCCCC1)C(=O)Nc1ccc(/C=C/C(=O)O)cc1` [compound 2002], the pIC50 is more than 6.30.
The same measure for `O=C(O)c1cc(NC(=O)C2(NC(=O)c3ccc4c(c3)nc(-c3ccoc3)n4C3CCCCC3)CCCC2)cc(C(=O)O)c1` [compound 1048]: 5.30 to 6.30.
In the case of `CC(NC(=O)c1ccc2c(c1)nc(-c1ccoc1)n2C1CCCCC1)C(=O)Nc1cccc(-c2ccc(O)cc2)c1` (centres unmarked) [compound 1021] it was 4.60 to 5.30; in that of `O=C(O)/C=C/c1ccc(NC(=O)C2(NC(=O)c3ccc4c(c3)nc(-c3ccccn3)n4C3CCC3)CCCC2)cc1` [compound 2028], 5.30 to 6.30; in that of `O=C(NC1(C(=O)Nc2ccc3ccc(=O)oc3c2)CCCC1)c1ccc2c(c1)nc(-c1ccoc1)n2C1CCCCC1` [compound 1038], 5.30 to 6.30.
`O=C(O)/C=C/c1ccc(N2CCOCC2)c(NC(=O)C2(NC(=O)c3ccc4c(c3)nc(-c3ccoc3)n4C3CCCCC3)CCCC2)c1` [compound 1040] gave a pIC50 of 4.60 to 5.30.
Take `COC(=O)c1cc(NC(=O)C2(NC(=O)c3ccc4c(c3)nc(-c3ccoc3)n4C3CCCCC3)CCCC2)cc(C(=O)O)c1` [compound 1052]: the pIC50 is 5.30 to 6.30.
Turning to `O=C(O)/C=C/c1ccc(NC(=O)[C@@H](NC(=O)c2ccc3c(c2)nc(-c2ccoc2)n3C2CCCCC2)c2ccccc2)cc1` [compound 1005], the pIC50 is 5.30 to 6.30.
The same measure for `O=C(O)CCc1cccc(NC(=O)C2(NC(=O)c3ccc4c(c3)nc(-c3ccoc3)n4C3CCCCC3)CCCC2)c1` [compound 1051]: 5.30 to 6.30.
The same measure for `C[C@@H](NC(=O)c1ccc2c(c1)nc(-c1ccoc1)n2C1CCCCC1)C(=O)Nc1ccc(/C=C/C(=O)O)cc1` [compound 1057]: more than 6.30; for `C[C@@H](NC(=O)c1ccc2c(c1)nc(-c1ccc[nH]1)n2C1CCCCC1)C(=O)Nc1ccc(/C=C/C(=O)O)cc1` [compound 2004]: more than 6.30.
Take `CC(NC(=O)c1ccc2c(c1)nc(-c1ccoc1)n2C1CCCCC1)C(=O)Nc1cccc(/C=C/C(=O)O)c1` (centres unmarked) [compound 1002]: the negative logarithm of the IC50 (pIC50) was 5.30 to 6.30.
The same measure for `O=C(O)/C=C/c1ccc(NC(=O)C2(NC(=O)c3ccc4c(c3)nc(-c3cccs3)n4C3CCCC3)CCCC2)cc1` [compound 2011]: 5.30 to 6.30.
`CCCC(NC(=O)c1ccc2c(c1)nc(-c1ccoc1)n2C1CCCCC1)C(=O)Nc1ccc(/C=C/C(=O)O)cc1` (centres unmarked) [compound 1063]: the pIC50 was more than 6.30.
The same measure for `Cc1cc(NC(=O)C2(NC(=O)c3ccc4c(c3)nc(-c3ccoc3)n4C3CCCCC3)CCCC2)ccc1/C=C/C(=O)O` [compound 1088]: more than 6.30.
In the case of `CC/C(=C\c1cccc(NC(=O)C(C)NC(=O)c2ccc3c(c2)nc(-c2ccoc2)n3C2CCCCC2)c1)C(=O)O` (centres unmarked) [compound 1011] it was 5.30 to 6.30.
As for `CCOC(=O)c1sc2ccc(NC(=O)C3(NC(=O)c4ccc5c(c4)nc(-c4ccoc4)n5C4CCCCC4)CCCC3)cc2c1C` [compound 1034], the pIC50 was 5.30 to 6.30.
The same measure for `CCn1c(C(=O)O)cc2cc(NC(=O)C3(NC(=O)c4ccc5c(c4)nc(-c4ccoc4)n5C4CCCCC4)CCCC3)ccc21` [compound 1085]: more than 6.30.
In the case of `O=C(O)/C=C/c1ccc(NC(=O)C2(NC(=O)c3ccc4c(c3)nc(-c3ccco3)n4C3CCCC3)CCCC2)cc1` [compound 2009] it was 5.30 to 6.30.
In the case of `O=C(O)/C=C/c1ccc(NC(=O)C2(NC(=O)c3ccc4c(c3)nc(-c3ccsc3)n4C3CCCCC3)CCCC2)cc1` [compound 2001] it was more than 6.30; in that of `CC(C)(C)OC(=O)N1CCC(NC(=O)c2ccc3c(c2)nc(-c2ccoc2)n3C2CCCCC2)(C(=O)Nc2ccc(/C=C/C(=O)O)cc2)CC1` [compound 1089], more than 6.30.
Regarding `Cc1c(C(=O)O)sc2ccc(NC(=O)C3(NC(=O)c4ccc5c(c4)nc(-c4ccoc4)n5C4CCCCC4)CCCC3)cc12` [compound 1099], the pIC50 is more than 6.30.
For the compound `C[C@@H](NC(=O)c1ccc2c(c1)nc(-c1ccoc1)n2C1CCCCC1)C(=O)Nc1ccc(-c2ccc(C(=O)O)o2)cc1` [compound 1066], the pIC50 was more than 6.30.
The same measure for `C[C@@H](NC(=O)c1ccc2c(c1)nc(-c1ccoc1)n2C1CCCCC1)C(=O)Nc1ccc(SCC(=O)O)cc1` [compound 1073]: 5.30 to 6.30.
In the case of `O=C(O)/C=C/c1ccc(NC(=O)C(CC2CCCCC2)NC(=O)c2ccc3c(c2)nc(-c2ccoc2)n3C2CCCCC2)cc1` (centres unmarked) [compound 1014] it was 5.30 to 6.30.
As for `Cn1cccc1-c1nc2cc(C(=O)NC3(C(=O)Nc4ccc(/C=C/C(=O)O)cc4)CCCC3)ccc2n1C1CCCC1` [compound 2008], the pIC50 was 5.30 to 6.30.
The same measure for `C[C@@H]1CCCC[C@H]1n1c(-c2ccco2)nc2cc(C(=O)NC3(C(=O)Nc4ccc(/C=C/C(=O)O)cc4)CCCC3)ccc21` (racemic) [compound 2041]: 5.30 to 6.30; for `O=C(O)/C=C/c1ccc(NC(=O)C2(NC(=O)c3ccc4c(c3)nc(-c3ccccc3)n4C3CCCC3)CCCC2)cc1` [compound 2010]: 5.30 to 6.30.
The same measure for `Cc1nc(C(=O)O)sc1-c1ccc(NC(=O)C2(NC(=O)c3ccc4c(c3)nc(-c3ccoc3)n4C3CCCCC3)CCCC2)cc1` [compound 1091]: 5.30 to 6.30; for `Nc1ncc(-c2ccc(NC(=O)C3(NC(=O)c4ccc5c(c4)nc(-c4ccoc4)n5C4CCCCC4)CCCC3)cc2)cn1` [compound 1111]: 5.30 to 6.30; for `O=C(O)/C=C/c1ccc(NC(=O)C2(NC(=O)c3ccc4c(c3)nc(-c3ccoc3)n4C3CCCC3)CCCC2)cc1` [compound 2013]: more than 6.30.
The same measure for `O=C(O)/C=C/c1ccc(NC(=O)C2(NC(=O)c3ccc4c(c3)nc(-c3ccccn3)n4C3CCCC3)CCCC2)cc1` [compound 2012]: 5.30 to 6.30.
In turn, `C[C@H](NC(=O)c1ccc2c(c1)nc(-c1ccoc1)n2C1CCCCC1)C(=O)Nc1ccc(/C=C/C(=O)O)cc1` [compound 1056] had a pIC50 of more than 6.30.
In the case of `O=C(O)C=Cc1ccc(NC(=O)C2(NC(=O)c3ccc4c(c3)nc(-c3ccccc3)n4C3CC4CCC3C4)CCCC2)cc1` (mixture of isomers) [compound 2018] it was 5.30 to 6.30.
The same measure for `Cn1cccc1-c1nc2cc(C(=O)NC3(C(=O)Nc4ccc(/C=C/C(=O)O)cc4)CCCC3)ccc2n1C1CCCCC1` [compound 2048]: more than 6.30.
In the case of `C/C(=C\c1ccc(NC(=O)C2(NC(=O)c3ccc4c(c3)nc(-c3ccoc3)n4C3CCCCC3)CCCC2)cc1)C(=O)O` [compound 1083] it was more than 6.30.
On to `CCN1CCC(NC(=O)c2ccc3c(c2)nc(-c2ccoc2)n3C2CCCCC2)(C(=O)Nc2ccc(-c3nc(C(=O)O)cs3)cc2)CC1` [compound 1108], for which the pIC50 is more than 6.30.
The same measure for `Cn1cccc1-c1nc2cc(C(=O)NC3(C(=O)Nc4ccc(/C=C/C(=O)O)cc4)CCCC3)ccc2n1C1CCC1` [compound 2024]: 5.30 to 6.30.
The same measure for `CC1CCCC(C)C1n1c(-c2ccccn2)nc2cc(C(=O)NC3(C(=O)Nc4ccc(C=CC(=O)O)cc4)CCCC3)ccc21` (mixture of isomers) [compound 2036]: 5.30 to 6.30; for `O=C(O)/C=C/c1ccc(NC(=O)[C@H](CCO)NC(=O)c2ccc3c(c2)nc(-c2ccoc2)n3C2CCCCC2)cc1` [compound 1064]: 5.30 to 6.30; for `CC1CCCC(C)C1n1c(-c2ccc[nH]2)nc2cc(C(=O)NC3(C(=O)Nc4ccc(C=CC(=O)O)cc4)CCCC3)ccc21` (mixture of isomers) [compound 2038]: 5.30 to 6.30.
In the case of `Cc1cc(=O)oc2cc(NC(=O)C3(NC(=O)c4ccc5c(c4)nc(-c4ccoc4)n5C4CCCCC4)CCCC3)ccc12` [compound 1082] it was 5.30 to 6.30; in that of `Cn1c(C(=O)O)cc2cc(NC(=O)C3(NC(=O)c4ccc5c(c4)nc(-c4ccoc4)n5C4CCCCC4)CCCC3)ccc21` [compound 1077], more than 6.30; in that of `O=C(O)/C=C/c1ccc(NC(=O)[C@H](NC(=O)c2ccc3c(c2)nc(-c2ccoc2)n3C2CCCCC2)c2ccccc2)cc1` [compound 1006], 5.30 to 6.30.
For the compound `C[C@@H](NC(=O)c1ccc2c(c1)nc(-c1ccccc1)n2C1CCCCC1)C(=O)Nc1ccc(/C=C/C(=O)O)cc1` [compound 2003], the pIC50 is 5.30 to 6.30.
The same measure for `O=C(NC1(C(=O)Nc2ccc3c(C(F)(F)F)cc(=O)oc3c2)CCCC1)c1ccc2c(c1)nc(-c1ccoc1)n2C1CCCCC1` [compound 1029]: 4.60 to 5.30; for `O=C(O)/C=C/c1ccc(NC(=O)C2(NC(=O)c3ccc4c(c3)nc(-c3cccc5c3OCO5)n4C3CCC3)CCCC2)cc1` [compound 2031]: 5.30 to 6.30.

These data come from US6841566B2, “Viral polymerase inhibitors” (Boehringer Ingelheim, Ltd., priority 2001, dated 2005).
